This is one part of the list. At the low end of the ranking the order means little.

This experiment concerns MYC (p64) + MAX (p21), in MYC:MAX. The experiment can be described thus: protein-binding microarray (anti-MAX antibody). Conditions: PBM: 15 mM Tris-HCl pH 7.5, 100 mM KCl, 0.075% NP40, 7.5 mM beta-mercaptoethanol, 375 ng/ul BSA, 8 ng/ul poly(dA-dT):(dA-dT), 550 ng complex, 60 min, room …; high values mean tight binding; double strand, one strand shown; sequences stand for … in CCGGC…TTAATAGCTAAGATTACTATATCGACG
TGAAGTGGAGTA: the binding signal (log2 normalized fluorescence) turned out to be 0.0961.

In the case of TGACAGACTGTA, the binding signal (log2 normalized fluorescence) stood at 0.158.

With TGACCGGACGTA, the binding signal (log2 normalized fluorescence) is -0.023.

Take GGGCACGTGGGA: the binding signal (log2 normalized fluorescence) was 0.986.

On to TGAGTGCACGTA, for which the binding signal (log2 normalized fluorescence) was determined as 0.34.

Take TGAGTATTGGTA: the binding signal (log2 normalized fluorescence) is -0.27.

In the case of TGAGCACCAGTA, the binding signal (log2 normalized fluorescence) was 0.058.

Regarding TGAATGATCGTA, the binding signal (log2 normalized fluorescence) stood at 0.201.

As for TGAAGACATGTA, the binding signal (log2 normalized fluorescence) was 0.36.

As to TGAAGTACAGTA, the binding signal (log2 normalized fluorescence) stood at 0.0509.

Take CAACACGTTGTA: the binding signal (log2 normalized fluorescence) is 0.669.

Consider TGATATAATGTA, for which the binding signal (log2 normalized fluorescence) is 0.0653.

For the sequence TGATACGTTGTA, the binding signal (log2 normalized fluorescence) was determined as 0.177.

As to CGATACGTGGAA, the binding signal (log2 normalized fluorescence) was found to be 0.275.

TGATACTCGGTA: the binding signal (log2 normalized fluorescence) was -0.00168.

TGATCATCGGTA: the binding signal (log2 normalized fluorescence) was -0.054.

With TGACCTCGTGTA, the binding signal (log2 normalized fluorescence) was found to be 0.666.

On to TGACCCTCCGTA, for which the binding signal (log2 normalized fluorescence) was -0.0191.

In the case of TGACGGACGGTA, the binding signal (log2 normalized fluorescence) is -0.132.

On to TGATTGCTGGTA, for which the binding signal (log2 normalized fluorescence) was 0.00382.

As for TGAGCTCCAGTA, the binding signal (log2 normalized fluorescence) was -0.0291.

Consider TGATTTGGAGTA, for which the binding signal (log2 normalized fluorescence) is -0.0299.

Turning to TGACCCCCCGTA, the binding signal (log2 normalized fluorescence) was 0.256.

Regarding TGACTCCCCGTA, the binding signal (log2 normalized fluorescence) came out at 0.234.

For TGATCGTCTGTA, the binding signal (log2 normalized fluorescence) was 0.0551.

For TGAGGGAGCGTA, the binding signal (log2 normalized fluorescence) came to 0.0307.

As for TCATACGTGGTA, the binding signal (log2 normalized fluorescence) came to 0.558.

TGAGCCCAAGTA: the binding signal (log2 normalized fluorescence) is -0.266.

As for TGAAGCCGAGTA, the binding signal (log2 normalized fluorescence) was -0.000556.

Turning to TGACTTACGGTA, the binding signal (log2 normalized fluorescence) was found to be 0.094.

As for TGATGTGTGGTA, the binding signal (log2 normalized fluorescence) worked out at 0.187.

In the case of TGAAACGTGGTC, the binding signal (log2 normalized fluorescence) worked out at 0.74.

In the case of TGAGTCGTGGTA, the binding signal (log2 normalized fluorescence) is 0.242.

For the sequence TGACACCTGTTA, the binding signal (log2 normalized fluorescence) was 0.45.

With TGAAAATTCGTA, the binding signal (log2 normalized fluorescence) is -0.18.

Regarding TGAGTGGCAGTA, the binding signal (log2 normalized fluorescence) was 0.306.

Turning to TGACGTAAGGTA, the binding signal (log2 normalized fluorescence) came to 0.0847.

Consider TGAGCCCCAGTA, for which the binding signal (log2 normalized fluorescence) was -0.146.

For TGAGATCCCGTA, the binding signal (log2 normalized fluorescence) is 0.0061.

In the case of TGACTTATTGTA, the binding signal (log2 normalized fluorescence) was -0.0591.

Take TGAGAAAATGTA: the binding signal (log2 normalized fluorescence) was -0.0528.

With TCTCACGTGGTC, the binding signal (log2 normalized fluorescence) was found to be 0.836.

As for TGAAGTGCTGTA, the binding signal (log2 normalized fluorescence) was 0.169.

As to TGAGCATTGGTA, the binding signal (log2 normalized fluorescence) is 0.143.

As to TACAGTCATGGA, the binding signal (log2 normalized fluorescence) amounted to 0.329.

In the case of TGAGAAAAAGTA, the binding signal (log2 normalized fluorescence) is -0.225.

On to TGTCACCTGGTC, for which the binding signal (log2 normalized fluorescence) was 0.45.

As for TGTCTCGTGGTA, the binding signal (log2 normalized fluorescence) was 0.727.

For the sequence TGACTTTATGTA, the binding signal (log2 normalized fluorescence) was 0.138.

With TGATGACCCGTA, the binding signal (log2 normalized fluorescence) amounted to 0.135.

TGACAATTAGTA: the binding signal (log2 normalized fluorescence) turned out to be 0.025.

As for TGAGCAGGCGTA, the binding signal (log2 normalized fluorescence) worked out at 0.044.

AGACACTTGGTA: the binding signal (log2 normalized fluorescence) was 0.421.

On to TGAAATCCGGTA, for which the binding signal (log2 normalized fluorescence) was -0.123.

As for CGACACGCGGTT, the binding signal (log2 normalized fluorescence) was determined as 0.82.

As to TGAGAACAAGTA, the binding signal (log2 normalized fluorescence) was 0.121.

With TGAGACCAAGTA, the binding signal (log2 normalized fluorescence) came to 0.094.

Take TGACGTGGCGTA: the binding signal (log2 normalized fluorescence) is 0.38.

For TGACACGTCGTA, the binding signal (log2 normalized fluorescence) was 0.472.

Consider TGATTCTTCGTA, for which the binding signal (log2 normalized fluorescence) is -0.0989.

With TGAGGATCAGTA, the binding signal (log2 normalized fluorescence) was -0.0154.

Take TGAAATGTGTTA: the binding signal (log2 normalized fluorescence) came out at 0.596.

For the sequence TGATCTACCGTA, the binding signal (log2 normalized fluorescence) is -0.069.

TGATAGCATGTA: the binding signal (log2 normalized fluorescence) is 0.284.

For TGACAAAGCGTA, the binding signal (log2 normalized fluorescence) came to 0.0954.

As to TGAGATGACGTA, the binding signal (log2 normalized fluorescence) is -0.00297.

With TGACTGATAGTA, the binding signal (log2 normalized fluorescence) came out at 0.00051.

As for TGACCTACAGTA, the binding signal (log2 normalized fluorescence) stood at 0.193.

On to TGAGCGCATGTA, for which the binding signal (log2 normalized fluorescence) was 0.53.

For TGATGCTATGTA, the binding signal (log2 normalized fluorescence) turned out to be 0.189.

Consider GAGCACGTGGTA, for which the binding signal (log2 normalized fluorescence) came to 0.525.

TTACACGATGTA: the binding signal (log2 normalized fluorescence) was 0.397.

On to TGAGTAGCGGTA, for which the binding signal (log2 normalized fluorescence) was -0.037.

On to TGACACGTGAAA, for which the binding signal (log2 normalized fluorescence) stood at 0.734.

For TGACCACACGTA, the binding signal (log2 normalized fluorescence) amounted to 0.463.

Turning to TGAAGAGAAGTA, the binding signal (log2 normalized fluorescence) was -0.00413.

For the sequence TGATGATTGGTA, the binding signal (log2 normalized fluorescence) is -0.018.

With TGAGGCGACGTA, the binding signal (log2 normalized fluorescence) was -0.0993.

As to TGAGCCGCGGTA, the binding signal (log2 normalized fluorescence) is 0.0972.

As for TGAGCGAGCGTA, the binding signal (log2 normalized fluorescence) was 0.0938.

Regarding TGACAGGCCGTA, the binding signal (log2 normalized fluorescence) amounted to 0.145.

Turning to TGATGGTCGGTA, the binding signal (log2 normalized fluorescence) is 0.0761.

Turning to TGACGTGTGGTA, the binding signal (log2 normalized fluorescence) was 0.252.

Regarding TGACGACAGGTA, the binding signal (log2 normalized fluorescence) was determined as 0.106.

TGAGACGGTGTA: the binding signal (log2 normalized fluorescence) was -0.0301.

For TGAACCAGGGTA, the binding signal (log2 normalized fluorescence) was found to be 0.179.

On to TTATACGTGGTA, for which the binding signal (log2 normalized fluorescence) amounted to 0.309.

Take TGAAGATCGGTA: the binding signal (log2 normalized fluorescence) turned out to be 0.0447.

Consider TGAGACTCCGTA, for which the binding signal (log2 normalized fluorescence) came to 0.0725.

Turning to TGACCGTACGTA, the binding signal (log2 normalized fluorescence) was 0.139.

As for TGATCTCCGGTA, the binding signal (log2 normalized fluorescence) was -0.218.

Consider TGAACTAGTGTA, for which the binding signal (log2 normalized fluorescence) was found to be 0.111.

TGATTAGACGTA: the binding signal (log2 normalized fluorescence) is -0.185.

With TGAGTACGGGTA, the binding signal (log2 normalized fluorescence) is -0.0173.

For the sequence TGAATGATGGTA, the binding signal (log2 normalized fluorescence) turned out to be 0.341.

As to TGAGAACTGGTA, the binding signal (log2 normalized fluorescence) was -0.101.

As for TGAGGCGCAGTA, the binding signal (log2 normalized fluorescence) stood at 0.0163.

For the sequence TGAGGATGCGTA, the binding signal (log2 normalized fluorescence) is -0.135.

TGATGTGCTGTA: the binding signal (log2 normalized fluorescence) was 0.323.

Regarding TGAAAGGCCGTA, the binding signal (log2 normalized fluorescence) was found to be 0.17.

Turning to TGATAATTAGTA, the binding signal (log2 normalized fluorescence) is -0.375.

Turning to TGACATATGGTA, the binding signal (log2 normalized fluorescence) came to 0.45.

As for TGACTGGGCGTA, the binding signal (log2 normalized fluorescence) worked out at 0.0251.

In the case of TGACTAACCGTA, the binding signal (log2 normalized fluorescence) amounted to 0.146.

TGACGAAAGGTA: the binding signal (log2 normalized fluorescence) is -0.0829.

For TGAAGCCGGGTA, the binding signal (log2 normalized fluorescence) is -0.109.

As to TGATGTTACGTA, the binding signal (log2 normalized fluorescence) amounted to 0.135.

Regarding TGACGGAACGTA, the binding signal (log2 normalized fluorescence) is 0.0765.

In the case of TGAACGTAGGTA, the binding signal (log2 normalized fluorescence) stood at 0.12.

For TGAGGGAGTGTA, the binding signal (log2 normalized fluorescence) was 0.101.

Consider TGAGACGTGGGA, for which the binding signal (log2 normalized fluorescence) is 0.342.

For the sequence CGACTAGTGGTA, the binding signal (log2 normalized fluorescence) stood at 0.0718.

For TGACGAATGGTA, the binding signal (log2 normalized fluorescence) came to 0.192.

With TGAACCTGCGTA, the binding signal (log2 normalized fluorescence) was 0.156.

With GATGCGCGACCA, the binding signal (log2 normalized fluorescence) worked out at 0.327.

Regarding TGACAAGTGGGA, the binding signal (log2 normalized fluorescence) amounted to 0.302.

On to TGAAAGTCAGTA, for which the binding signal (log2 normalized fluorescence) was -0.0668.

Regarding TGAACGACCGTA, the binding signal (log2 normalized fluorescence) came out at 0.201.

With TGACACGTGAAG, the binding signal (log2 normalized fluorescence) came to 0.527.

As for TGATTCGGGGTA, the binding signal (log2 normalized fluorescence) is 0.0525.

With TGATAAAAGGTA, the binding signal (log2 normalized fluorescence) was -0.00131.

On to TGATCGCGCGTA, for which the binding signal (log2 normalized fluorescence) came out at 0.284.

In the case of TGACACTTTGTA, the binding signal (log2 normalized fluorescence) came to 0.302.

As to TGAGCAACGGTA, the binding signal (log2 normalized fluorescence) is -0.0565.

In the case of TGATATGAGGTA, the binding signal (log2 normalized fluorescence) was -0.0821.

Turning to TGATTGCGTGTA, the binding signal (log2 normalized fluorescence) turned out to be 0.205.

TGTCATGTTGTA: the binding signal (log2 normalized fluorescence) was found to be 0.371.

Regarding TGAGTGGGGGTA, the binding signal (log2 normalized fluorescence) was 0.621.

TGAATCAAAGTA: the binding signal (log2 normalized fluorescence) was -0.00984.

Take ATAAAATTCAGC: the binding signal (log2 normalized fluorescence) came to 0.125.

On to TGAGCACTAGTA, for which the binding signal (log2 normalized fluorescence) is 0.224.

Turning to TGAGCAAGTGTA, the binding signal (log2 normalized fluorescence) is 0.173.

As to TGAGCCTGGGTA, the binding signal (log2 normalized fluorescence) is -0.148.

In the case of TGACGGGAGGTA, the binding signal (log2 normalized fluorescence) is 0.133.

On to TGATCAAAAGTA, for which the binding signal (log2 normalized fluorescence) is -0.139.

Turning to TGAACTTGTGTA, the binding signal (log2 normalized fluorescence) stood at 0.308.

TGAGACGCAGTA: the binding signal (log2 normalized fluorescence) is 0.055.

TGTTGCGTGGTA: the binding signal (log2 normalized fluorescence) amounted to 0.336.

These data come from PMC5515408.
